# About 230 (0.21%) of roughly 110,000 compounds showed an effect of 50% or more. Some of the results follow.
# Target: DPAP1 (Plasmodium falciparum, UniProt Q8IIJ9)
# Assay: primary screen, percent inhibition; read by cleavage of a fluorogenic dipeptide substrate; higher = more effect of the substance
# Parameters: species or system P. falciparum D10 trophozoite lysates; single well
# 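Also: 30 min substrate incubation versus DMSO and 10 µM JCP410 controls.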
# DPAP1, sequence (Q8IIJ9 whole entry, looked up): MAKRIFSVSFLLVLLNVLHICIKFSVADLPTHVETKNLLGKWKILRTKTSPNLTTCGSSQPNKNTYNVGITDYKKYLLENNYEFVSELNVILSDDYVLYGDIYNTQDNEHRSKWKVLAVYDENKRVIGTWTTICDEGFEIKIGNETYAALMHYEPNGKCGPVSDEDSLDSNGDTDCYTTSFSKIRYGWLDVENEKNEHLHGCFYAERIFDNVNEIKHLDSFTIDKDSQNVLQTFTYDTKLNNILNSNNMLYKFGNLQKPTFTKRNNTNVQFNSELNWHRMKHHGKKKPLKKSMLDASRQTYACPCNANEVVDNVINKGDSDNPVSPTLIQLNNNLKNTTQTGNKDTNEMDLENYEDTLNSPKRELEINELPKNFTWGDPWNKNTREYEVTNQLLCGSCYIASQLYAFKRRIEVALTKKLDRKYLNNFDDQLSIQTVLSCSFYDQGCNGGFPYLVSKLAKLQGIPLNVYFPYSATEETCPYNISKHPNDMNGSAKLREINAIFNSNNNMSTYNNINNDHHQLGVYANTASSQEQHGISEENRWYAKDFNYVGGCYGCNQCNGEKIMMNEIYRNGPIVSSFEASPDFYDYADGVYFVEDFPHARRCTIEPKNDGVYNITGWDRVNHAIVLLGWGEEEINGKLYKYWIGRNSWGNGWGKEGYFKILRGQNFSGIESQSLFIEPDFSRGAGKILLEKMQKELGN
row,SMILES,% Inhibition @ 10 uM [%]
1,CCOc1ccc(/C=C/c2nc(=O)c3ccccc3o2)cc1,8.18
2,NC(=O)c1c(NC(=O)Cc2ccc(F)cc2)sc2c1CCCC2,3.53
3,Cc1[nH]nc(O)c1C(c1cccc(OCc2ccccc2)c1)c1c(O)n[nH]c1C,-1.06
4,CCCCC(=O)c1c(C)cc(C)nc1S,46.3
5,CCCN1CCN(C(=O)Cn2ncc3c(C)n(Cc4ccccc4F)c(C)c3c2=O)CC1,-5.81
6,O=S(=O)(c1ccc(Cl)cc1)N1CCC(N2CCCCC2)CC1,3.77
7,O=C(CN1C(=O)C(c2ccccc2)Oc2cccnc21)NCCCc1ccccc1 (stereo not shown),-3.56
8,COC(=O)c1ccc(-c2cc(C(=O)O)c3c(-c4ccc(Br)cc4)[nH]nc3n2)cc1,6.88
9,COc1ccc(NC2=NC(=O)/C(=C\c3ccc(OC)c(O)c3)S2)cc1,15.7
10,COc1ccc(Cl)cc1NC(=O)CN(Cc1ccccc1)S(=O)(=O)c1ccc(C)cc1,0.992
11,Cn1cc(NC(=O)N2CCCCC2c2cccnc2)c2ccccc2c1=O (stereo not shown),-0.808
12,Cc1cc(C)c2c(CC(=O)N(Cc3ccccc3)Cc3ccco3)coc2c1,4.18
13,Clc1ccc(CCNCc2ccncc2)c(Cl)c1,-0.233
14,COCCNC(=O)C1Sc2nnc(-c3ccccc3)n2NC1c1ccc(Cl)cc1 (stereo not shown),3.35
15,CC1=C(C(=O)N(C)CCC#N)C2(CCCCC2)OC1=O,-0.354
16,Cc1ccc2ccccc2c1CSc1nc2c(c(=O)n(C)c(=O)n2C)n1C,2.15
17,c1cnc(N2CCN(Cc3cccs3)CC2)nc1,-4.5
18,CCN(CC)c1ccc(NS(=O)(=O)c2ccc(N)cc2)cc1,0.907
19,COc1ccc(C2=NC(C(F)(F)F)(C(F)(F)F)N=C3C=CC=C(C)N32)cc1,-1.72
20,CCc1ccc(/C=c2\sc3nc(C4COc5ccccc5O4)nn3c2=O)cc1 (stereo not shown),-5.2
21,CCn1c(C(=O)NCc2cccnc2)cc2sc(Cl)cc21,-1.37
22,CC1=C(C(=O)N2CCCCC2)C(c2ccccc2F)C2=C(O)CCCC2=N1 (stereo not shown),-5.05

row,SMILES,% Inhibition @ 10 uM [%]
1,COC(=O)C1=CN(C(C)C)C=C(C(=O)OC)C1c1ccc(C(C)C)cc1,-1.48
2,COC(=O)c1c(NC(=O)c2ccc(OC)c(OC)c2)sc(C)c1C,-3.24
3,CC1CCc2c(C(=O)NCc3ccccc3)csc2C1 (stereo not shown),1.93
4,CCOc1cccc(-c2cc(C(=O)Nc3ccccn3)c3ccccc3n2)c1,-3.23
5,CCOC(=O)c1cc(C)n(-c2ccc(C(=O)N3CCN(C(=O)OCC)CC3)cc2)c1C,-2.26
6,O=C(CSCc1ccccc1F)NCc1ccc(F)cc1,-0.406
7,COc1cccc(NC(=O)c2c(-c3ccccc3Cl)noc2C)c1,5.31
8,N#CCc1ccc(NC(=O)COc2ccc3ccccc3c2)cc1,1.01
9,COc1ccc(CCNC(=O)CCCC(=O)O)cc1OC,2.32
10,Cn1c(=O)c2nc(-c3ccc(OCc4ccccc4)cc3)[nH]c2n(C)c1=O,-1.28
11,COc1ccc(-n2nnc3c(=O)n(Cc4ccccc4Cl)cnc32)cc1,1.24
12,c1ccc(-c2nnc(CN3CCC4(CC3)OCCO4)o2)cc1,3.74
13,CC(NC(=O)Cn1cc(C#N)c2cc(Br)ccc21)c1ccccc1 (stereo not shown),0.776
14,COc1ccc(CNC(=O)Cn2ccc3cc(S(=O)(=O)N4CCC(C)CC4)ccc32)c(OC)c1,3.64
15,Cc1sc2nc3c4ccccc4c(Cl)nn3c(=O)c2c1C,0.24
16,Cc1ccc(/C=c2\sc3nc(-c4ccncc4)nn3c2=O)cc1,5.12
17,CCN1CCN(CCNc2cc(C)nc3c(-c4ccc(OC)c(OC)c4)c(C)nn23)CC1,-1.89
18,CCN1CCN(CCNC(=O)c2ccc3c(c2)c(C)c(C)n3CC)CC1,-5.09
19,CCC(C)NC(=O)C1=CCN(S(=O)(=O)c2ccc(F)cc2)CC1 (stereo not shown),3.59
20,Cc1cc(S(=O)(=O)N(Cc2ccccc2)Cc2ccccc2Cl)ccc1-n1cnnn1,58.7
21,COC(=O)c1cc(S(=O)(=O)N(CCCN2CCOCC2)Cc2ccco2)c[nH]1,-4.33
22,CCOc1cc(/C=C2/SC(=O)N(CC(=O)N3CCOCC3)C2=O)ccc1OC,-5.82

row,SMILES,% Inhibition @ 10 uM [%]
1,CSc1nc(-c2ccc(C)cc2)nc(O)c1C#N,-2.8
2,CCOc1ccc(S(=O)(=O)N(CC(=O)Nc2cccc3ccccc23)c2ccccc2)cc1,4.08
3,COc1ccc(-c2nc3ccccn3c2NC(=O)CC(C)C)cc1,2.17
4,Cc1ccc(CN2CCC(CNC(=O)CCc3c(C)nc4c(c3C)c(=O)n(C)c(=O)n4C)C2)cc1 (stereo not shown),3.75
5,Cc1ccc(CNC(=O)c2sc3nc4n(c(=O)c3c2C)CCC4)cc1,-5.69
6,Cc1ccc(S(=O)(=O)N2CCCC(C(=O)NCc3ccco3)C2)cc1 (stereo not shown),5.94
7,CCOc1ccc2[nH]c(CO)nc2c1,-0.92
8,Cc1ccc(-n2ncc(C(=O)NCc3ccccn3)c2C2CCN(C(=O)OC(C)(C)C)CC2)cc1,-5.97
9,NS(=O)(=O)c1ccc2ccc(O)cc2c1,0.847
10,CS(=O)(=O)N1CCC(C(=O)NCc2ccc3c(c2)OCO3)CC1,0.387
11,COc1cccc(OC)c1C(=O)Nc1ccc(Cl)cc1,-3.29
12,COc1ccc(N2C(=O)c3ccccc3NC2c2ccccc2)cc1 (stereo not shown),-3.26
13,CCCCNc1nc(SCc2cc(C(C)=O)ccc2OC)nc2ccccc12,-0.456
14,O=C(NCc1ccccc1Cl)C1CCCN(S(=O)(=O)N2CCC3(CC2)OCCO3)C1 (stereo not shown),-2.56
15,NCC(O)CNCCc1ccccc1 (stereo not shown),3.25
16,CCN(CC)CCNC(=O)c1cccc(OC)c1,-0.0619
17,CC(=O)N1CCN(CC(c2ccccc2)c2ccccc2)CC1,-3.15
18,CN(CCCNC(=O)Cn1cccc1C(=O)c1ccccc1)C1CCCCC1,-4.26
19,O=C(CCC(=O)Nc1nc(-c2cc3ccccc3oc2=O)cs1)NCc1ccccc1Cl,-2.03
20,COc1ccc2c(c1)CC/C(=C\c1ccc3nccnc3c1)C2=O,8.9

# — publication PMC6919601, “Identification of Plasmodium dipeptidyl aminopeptidase allosteric inhibitors by high throughput screening” (PLoS ONE, 2019)
